Among all 310,000 compounds or so, about 2,200 (0.71%) showed an effect of 50% or more. Effects have a minus sign here. Some of the results follow.
molecular target: human ether-à-go-go-related gene (hERG) potassium channel (human, UniProt Q12809); experiment: primary screen, population patch clamp on CHO cells stably expressing hERG
Sequence (Q12809 whole entry, looked up): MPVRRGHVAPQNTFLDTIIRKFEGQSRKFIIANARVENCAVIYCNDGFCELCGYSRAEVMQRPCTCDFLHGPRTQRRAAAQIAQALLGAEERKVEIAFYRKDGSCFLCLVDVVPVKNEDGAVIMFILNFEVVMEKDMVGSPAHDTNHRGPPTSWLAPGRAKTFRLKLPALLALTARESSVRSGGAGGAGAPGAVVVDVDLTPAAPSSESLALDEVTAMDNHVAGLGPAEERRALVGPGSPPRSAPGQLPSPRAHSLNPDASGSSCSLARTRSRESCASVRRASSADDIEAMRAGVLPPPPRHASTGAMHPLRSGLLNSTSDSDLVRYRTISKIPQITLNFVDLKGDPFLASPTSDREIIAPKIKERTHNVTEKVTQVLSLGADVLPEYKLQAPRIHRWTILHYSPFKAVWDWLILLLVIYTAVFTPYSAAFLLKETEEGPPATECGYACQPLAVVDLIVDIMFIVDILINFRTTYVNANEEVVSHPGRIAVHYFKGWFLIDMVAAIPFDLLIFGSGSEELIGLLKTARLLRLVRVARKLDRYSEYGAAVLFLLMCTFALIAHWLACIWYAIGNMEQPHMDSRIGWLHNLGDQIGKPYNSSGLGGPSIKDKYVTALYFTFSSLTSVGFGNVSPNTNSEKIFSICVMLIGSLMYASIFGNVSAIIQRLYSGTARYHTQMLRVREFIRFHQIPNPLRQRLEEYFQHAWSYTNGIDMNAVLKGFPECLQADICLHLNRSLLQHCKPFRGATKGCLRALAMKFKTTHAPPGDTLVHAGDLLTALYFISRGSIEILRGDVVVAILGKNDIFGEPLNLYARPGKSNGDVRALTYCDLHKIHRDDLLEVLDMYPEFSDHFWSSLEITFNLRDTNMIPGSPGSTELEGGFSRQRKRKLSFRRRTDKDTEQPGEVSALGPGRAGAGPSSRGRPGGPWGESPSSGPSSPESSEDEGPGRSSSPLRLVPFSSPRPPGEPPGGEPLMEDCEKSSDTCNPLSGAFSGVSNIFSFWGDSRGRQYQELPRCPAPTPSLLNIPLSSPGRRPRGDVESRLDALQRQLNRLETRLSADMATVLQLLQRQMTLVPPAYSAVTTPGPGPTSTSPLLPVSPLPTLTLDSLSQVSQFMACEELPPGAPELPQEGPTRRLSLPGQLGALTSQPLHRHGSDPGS

Row | Compound | hERG current change (%, negative = inhibition) at 1uM
1 | CC(C)NCC(O)COc1ccc(CC(N)=O)cc1 (stereo not drawn) | 14.4%
2 | O=C(Nc1ccc(N2CCOCC2)cc1)c1ccc(S(=O)(=O)NCc2ccco2)cc1 | 12.5%
3 | O=C(CC1NCCN(Cc2ccccc2)C1=O)Nc1ccc(Cl)cc1 (stereo not drawn) | 11.7%
4 | COc1cccc(CN2CC(C(=O)NCCN3CCOC3=O)CCC2=O)c1 (stereo not drawn) | 5.89%
5 | CCOc1ccc(-c2c(C(=O)N/N=C/c3ccc(C)s3)nnn2-c2nonc2N)cc1 | 9.41%
6 | COC(=O)CN1C(=S)N(c2ccc(OC)cc2)C(=O)C1CC(=O)Nc1ccc(F)cc1 (stereo not drawn) | 8.67%
7 | C[C@H]1CN=C(N(C)C)N1CCc1ccccc1 | 14.6%
8 | CCOC(=O)C1=C(C)Nc2ccccc2N/C1=N\S(=O)(=O)c1cc(C(=O)O)ccc1Cl | 12.9%
9 | O=C(CSc1nccn1-c1ccc(F)cc1)NCc1ccc(F)cc1 | -4.87%
10 | Cc1cc(C(=O)O)ccc1-c1ccc(/C=N/n2cnnc2)o1 | 12.6%
11 | O=C(c1ccco1)N1CCN(C(=O)c2cc3ccccc3oc2=O)CC1 | -2.46%
12 | Cc1nonc1-c1nc(-c2nonc2N)n[nH]1 | 5.6%
13 | COc1ccccc1NS(=O)(=O)c1ccc2oc(=O)ccc2c1 | 14.1%
14 | CCC(=O)C1=C(O)C(c2cccc(Oc3ccccc3)c2)CCC1=O (stereo not drawn) | -3.24%
15 | Cc1nc(-c2nc(-c3c(C(=O)NNC(=O)Nc4cccc(Cl)c4)noc3C)cs2)cs1 | 9.91%
16 | CCN(CC)S(=O)(=O)c1ccc(C)c(C(=O)Oc2cccc(-c3cnc4ccccc4n3)c2)c1 | 17%
17 | Cc1cc(=O)oc(C)c1C(=O)NCC1COc2ccccc2O1 (stereo not drawn) | 12.7%
18 | O=C(c1ccc(Cl)cc1)N1CCC(N2CCC(C(=O)N3CCOCC3)CC2)CC1 | -7.04%
19 | CC(C)(C)NC(=O)C(c1ccncc1)N(C(=O)Cn1nnc(-c2ccc(F)cc2)n1)c1ccc(F)cc1 (stereo not drawn) | 10.5%
20 | CCOc1ccc(C(C)NC(=O)Cc2ccccc2F)cc1OCC (stereo not drawn) | 10.3%
21 | c1ccc(-c2nc(-c3ccncc3)n[nH]2)nc1 | 3.47%
22 | COc1ccc(-c2nn(Cc3ccccc3)cc2C(=O)N2CCN(c3ncccn3)CC2)cc1OC | -6.93%
23 | C=CCNC(=O)c1c(-c2c(F)cccc2Cl)noc1C | 5.24%

Row | Compound | hERG current change (%, negative = inhibition) at 1uM
24 | COc1cccc(CNC(=O)Cn2c(=O)n(CCC(=O)N3CCCCC3)c(=O)c3sccc32)c1 | 15.3%
25 | CCN(Cc1cnn(C)c1)C(=O)c1cc(COc2cc(C)c(Cl)c(C)c2)on1 | -5.2%
26 | O=C(c1ccccc1)c1c(O)nc(-c2ccccc2)n(-c2ccccc2)c1=O | 16.7%
27 | CCCCc1nc2sc3c(SCC(=O)NCc4ccco4)ncnc3c2c2c1CCC2 | 15.6%
28 | O=C(Nc1ccccc1)N1CCc2ccccc2C1 | 17.7%
29 | CCOc1cc(NC(=S)NCC2CCCO2)c(OCC)cc1NC(=O)CC (stereo not drawn) | -6.14%
30 | Nc1cc(N2CCCC2)ccc1[N+](=O)[O-] | 13%
31 | FC(F)(F)c1ccc(-c2nc(=S)[nH][nH]2)cc1 | 23.9%
32 | COc1ccc(S(=O)(=O)N(Cc2cccs2)C2CCCC2)cc1 | 6.03%
33 | CC1(C)CC(NC(=S)NCc2ccc3c(c2)OCO3)CC(C)(C)N1 | 15%
34 | Cc1ccc(OCCC(=O)OCC(=O)N2CCN(S(=O)(=O)c3ccc(C)cc3C)CC2)cc1 | 14.7%
35 | N#CC1(NC(=O)CN2CCc3ccccc3C2)CCCC1 | 15.3%
36 | NC(CC(=O)O)C1CCCCC1 (stereo not drawn) | 18.5%
37 | CSC1=N/C(=C/c2cccnc2)C(=O)N1Cc1ccccc1 | 3.96%
38 | Cc1ccc(-c2cc(C(=O)N3CCOCC3)no2)cc1 | -0.161%
39 | O=S(=O)(c1ccc2c(c1)OCCO2)N1CCN(Cc2ccccc2)CC1 | 10.2%
40 | COc1ccc(C(=O)c2ccc(Cl)c([N+](=O)[O-])c2)cc1 | 14.2%
41 | O=C(NCC1CCCO1)c1ccccc1-c1nc(-c2ccc(F)cc2)no1 (stereo not drawn) | -3.92%
42 | C=CCc1c(C)nn(CC(=O)O)c1-c1ccccc1 | 12%
43 | COCCn1nnnc1C(c1cc(OC)ccc1OC)N1CCc2ccccc2C1.Cl (stereo not drawn) | 13.6%
44 | Cc1ccn(CC(=O)NC2CCCN(Cc3ccc(CC(C)C)cc3)C2)n1 (stereo not drawn) | -9.35%
45 | C=CCOC(=O)C1=C(C)NC(=O)NC1c1ccc(OCC)cc1 (stereo not drawn) | 7.86%
46 | CN(C)CCCCNCCCNC(=O)/C=N\O | 21.7%

Row | Compound | hERG current change (%, negative = inhibition) at 1uM
47 | CCOc1cc(N2CCOCC2)c(OCC)cc1NC(=O)c1ccc(NC(C)=O)cc1 | 9.3%
48 | COc1ccc(C#Cc2ccc3c(=O)c4ccccc4n(C)c3c2)cc1 | 16.1%
49 | CC1CN(C(=O)c2cccc(S(=O)(=O)Nc3ccc(Cl)cc3)c2)CC(C)O1 (stereo not drawn) | 17.9%
50 | CCOC(=O)c1[nH]c2ccc(Cl)cc2c1-c1ccccc1 | 20.4%
51 | CCCC(NC(=O)C(C)Sc1nnnn1C1CC1)c1ccccc1 (stereo not drawn) | 15.2%
52 | CCC(CC)NC(=O)CCc1nc2ccccc2c(=O)[nH]1 | 20.9%
53 | COc1cccc(Nc2ccc(Nc3cccc(OC)c3)nn2)c1 | 10.7%
54 | CCOc1ccc(S(=O)(=O)NCCC(=O)N(C)Cc2cccs2)cc1 | -1.83%
55 | Cc1nn(C)c(=S)n1-c1ccc(Cl)cc1 | 7.75%
56 | Cc1ccccc1N(CC(=O)N1CCc2ccccc2C1)S(C)(=O)=O | 13.8%
57 | CC(=O)c1ccc(N2CCN(C(=O)Nc3ccc(C(C)C)cc3)CC2)cc1 | -3.02%
58 | CCOC(=O)C(=O)N(Nc1ccccc1C)c1ccccc1C | 8.65%
59 | CCCc1cc(=O)oc2cc(C)cc(OCC(=O)N3CCC(C(=O)O)CC3)c12 | 8.73%
60 | CC1(C)CC(=O)C2=C(C1)OC(c1cccs1)C(C#N)=C2N (stereo not drawn) | -0.224%
61 | COc1ccc(OCCn2cnc(Cl)c2Cl)cc1 | 7.81%
62 | CC(=O)Nc1ccc(C(=O)Nc2ccc(S(=O)(=O)NCC3CCCO3)cc2)cc1 (stereo not drawn) | 11.5%
63 | N#CCOC(=O)C1CSC2(c3ccc(Br)cc3)CCC(=O)N12 (stereo not drawn) | 12.3%
64 | O=C(NCCC1CCCCN1S(=O)(=O)c1ccc(F)cc1)C(=O)NCc1cccnc1 (stereo not drawn) | 1.77%
65 | COc1cc2cc(CN(Cc3cccs3)C(=S)Nc3ccc(C)cc3)c(=O)[nH]c2cc1OC | 20.3%
66 | O=c1c(-c2ccc(Br)cc2)coc2c(CN3CCOCC3)c(O)ccc12 | -12.4%
67 | COc1ccccc1C(NC(C)=O)c1c(O)ccc2ccc(O)cc12 (stereo not drawn) | 7.65%
68 | O=C(CSc1cn(Cc2ccccc2)c2ccccc12)NCc1ccc(F)cc1 | 13.7%
69 | CCOc1ccc(CCNC(=O)COC(=O)c2cccc(N(C)C)c2)cc1OCC | 8.94%

Row | Compound | hERG current change (%, negative = inhibition) at 1uM
70 | O=C(CCN1C(=O)/C(=C/c2ccc(F)cc2)SC1=S)NCCc1cnc[nH]1 | 8.54%
71 | CC(C)(C)[C@H]1CCC(=O)N([C@H](CN=[N+]=[N-])Cc2ccccc2)CC1 | 5.7%
72 | Cc1ccc2nc(NC(=O)c3ccc(N4C(=O)CCC4=O)cc3)sc2c1 | 17.4%
73 | Cc1cccc(C)c1NC(=O)CNC(=O)Cc1ccccc1[N+](=O)[O-] | 20.5%
74 | Cc1nn2c(-c3ccc(S(=O)(=O)N4CCN(C)CC4)o3)nnc2c2ccccc12 | 11.9%
75 | Cc1ccc(C)c(NS(=O)(=O)c2cc3c4c(c2)CC(=O)N4CCC3)c1 | 13.6%
76 | Cc1ccc(S(=O)(=O)N2CCOCC2)cc1C(=O)N1CC(C)OC(C)C1 (stereo not drawn) | 6.53%
77 | CCCCCC(=O)Nc1ccc(N2CCN(CC)CC2)c(Cl)c1 | -55.6%
78 | CCCN1CCN(C(=S)Nc2ccc([N+](=O)[O-])cc2)CC1 | -11%
79 | Cc1cc(C)cc(C(=O)/C=C2\NC(=O)CS2)c1 | -0.786%
80 | CCN1CCCC1CNC(=O)CSCc1nc(-c2ccccc2C)oc1C (stereo not drawn) | -4.1%
81 | COc1ccc(N2C(=O)CC(Cc3ccccc3)C2=O)cc1 (stereo not drawn) | 20.4%
82 | O=C(C1CCCCC1)N1CCN=C1SCc1cccnc1 | 2.4%
83 | Cc1cc(C2C(=O)c3ccccc3C2=O)c(C)c(C)c1C | 1.32%
84 | C=CCn1c(COc2ccccc2)nnc1SCC(=O)Nc1ccc2c(c1)OCCO2 | 7.66%
85 | O=C(CNS(=O)(=O)c1ccccc1)NCC(=O)OCc1ccccc1F | 9.02%
86 | CC1(OC(=O)CCc2ccccc2)C(=O)C=C2C=C3CCCN3C=C2C1=O (stereo not drawn) | 5.15%
87 | COc1ccc(C(CNC(=O)c2ccc(OCc3ccccc3)cc2)N2CCOCC2)cc1 (stereo not drawn) | 3.14%
88 | COC(=O)C1=CN(C(C)C)C=C(C(=O)OC)C1c1cc2c(cc1Br)OCO2 | 7.11%
89 | Cc1ccc(S(=O)(=O)N(C)CCCC(=O)Nc2ccncc2)cc1 | -21.6%
90 | CCOc1ccc2nc(C(=O)N3CCCC(C)C3)sc2c1 (stereo not drawn) | 6.18%
